± gives the standard deviation of the averaged measurements. The list shows a part of the results.

This assay concerns PfAP2-G AP2 domain (GST-tagged). As to the kind of experiment: gcPBM binding intensity (ln(normalized median fluorescence intensity)); higher = stronger DNA binding. In short, it runs like this:
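DNA-binding domains from P. falciparum, fused to GST and produced in E. coli, were put on an Agilent 4 × 180k double-stranded probe array for 1 h in 1× PBS holding 1% milk, 0.2 mg/ml BSA, 0.5% salmon testes DNA and 0.03% Triton X-100. Probes were primer-extended, 36 bp long and drawn from intergenic genomic regions, with negative controls included. After Alexa488 anti-GST antibody detection and a 488 nm scan, binding intensity was set as the highest Masliner-normalised natural-log median intensity across replicate spots of either probe orientation.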
As for “TTTTCCAGTAAATATTTTTTTATAATATTTATATAT [CACACA_negctrl_site387]”, the “gcPBM binding intensity (ln)” value was determined as 9.685 ± 0.007.
“TATTCGAACAAAAATACATGCACATATGCATAATAA [TGCATGCA_site171]”: the “gcPBM binding intensity (ln)” value is 9.84 ± 0.042.
The value for “AATAATTTCCAAAAATGTACATATATTTACATATAT [XGTACX_site1790]” was 10.9 ± 0.52.
As to “ATTTTAACTCCCCTTAATCTATTGTATATATATATA [CACACA_negctrl_site208]”, the “gcPBM binding intensity (ln)” value was 9.9 ± 0.42.
Regarding TAATAAATGTTATTAGTGCATAATAGATAATATATT, the “gcPBM binding intensity (ln)” value was determined as 9.96 ± 0.18.
For “AAATAAAATAAAATACGTACCTATTGTGCGTATTAA [XGTACX_site2912]”, the “gcPBM binding intensity (ln)” value is 11.1 ± 0.69.
With “ATAAATATAGGACACACACACATATTATATATATAT [CACACA_site5658]”, the “gcPBM binding intensity (ln)” value came to 10.9 ± 0.51.
On to “AAATATAATATATGCACACATACATACAGATATATA [CACACA_site4235]”, for which the “gcPBM binding intensity (ln)” value was determined as 10 ± 0.13.
On to “GTTATATTCCTACAGAGTACATAAAAATGCACATCA [XGTACX_site1948]”, for which the “gcPBM binding intensity (ln)” value came to 11.2 ± 0.91.
As to “ATAATATAAATATGCACACAAATTATTACCCAAAAA [CACACA_site2524]”, the “gcPBM binding intensity (ln)” value was determined as 10.3 ± 0.13.
For the sequence “AAATGAACAAGTGGCACACACACATCATAACTAATT [CACACA_site5730]”, the “gcPBM binding intensity (ln)” value worked out at 10.4 ± 0.31.
“TATATAAAAAAACAAAGTACATGTTCTTAATCATTT [XGTACX_site8446]”: the “gcPBM binding intensity (ln)” value stood at 10.9 ± 0.54.
Turning to “TATATATATATATACACACACACACCGATATATATA [CACACA_site8813]”, the “gcPBM binding intensity (ln)” value stood at 10.1 ± 0.38.
For “CACGCGAACATACATACACACACATATATATATATG [CACACA_site7951]”, the “gcPBM binding intensity (ln)” value is 10.4 ± 0.2.
As for “CAAAATATATATACCACACACACATACCTCTATTTG [CACACA_site1853]”, the “gcPBM binding intensity (ln)” value amounted to 10.2 ± 0.16.
Regarding “ATATATTTTTTCTTAACACACATATATAAAATAAAA [CACACA_site3500]”, the “gcPBM binding intensity (ln)” value was 10 ± 0.17.
For the sequence “CTAGCAAATACATACACACACACACCGATACAGATA [CACACA_site5853]”, the “gcPBM binding intensity (ln)” value was 10.1 ± 0.11.
Turning to “ATATATACATATATTACACACTTCTTATTCTAAGAA [CACACA_site3022]”, the “gcPBM binding intensity (ln)” value was 10 ± 0.19.
On to “CATACATACATACATACACACATACCTATATTTATA [CACACA_site6769]”, for which the “gcPBM binding intensity (ln)” value was 10.6 ± 0.27.
Turning to “TTAATAACAAAATAAACACACATATATAAATACCCA [CACACA_site4960]”, the “gcPBM binding intensity (ln)” value came to 10 ± 0.11.
In the case of “TCCATAAAAATGGATACACACACATAATATATATAT [CACACA_site9207]”, the “gcPBM binding intensity (ln)” value turned out to be 10.3 ± 0.35.
With “TATAATATAAGGATCACACACAAACACCCATATATA [CACACA_site4468]”, the “gcPBM binding intensity (ln)” value amounted to 10.4 ± 0.21.
With “TTCACATACAGAAACACACACATATATATAAATTAA [CACACA_site3705]”, the “gcPBM binding intensity (ln)” value was 10.02 ± 0.099.
As for TGTATGATAACTATAGTGCATTTGGTAATTTTTCCA, the “gcPBM binding intensity (ln)” value is 10.06 ± 0.085.
On to “TTGCCCATTTAATTAACACACAAATGTTTATATTCT [CACACA_site6488]”, for which the “gcPBM binding intensity (ln)” value was 10.04 ± 0.049.
For “TTTGAAATAAGCAAATGTACATTATTATTAAATATA [XGTACX_site6158]”, the “gcPBM binding intensity (ln)” value was determined as 10.8 ± 0.42.
Consider “AATAATATATATTACACACGCATCGTTCATTTATTT [CACACA_site2391]”, for which the “gcPBM binding intensity (ln)” value stood at 9.9 ± 0.16.
As to “TATTTCATGATACAATGTACATGTATATATGATACC [XGTACX_site5057]”, the “gcPBM binding intensity (ln)” value came to 11 ± 0.57.
To “ATTTATTTGTTTGTTTTTTTTACGATTTTTATTTTT [CACACA_negctrl_site1138]” belongs 9.79 ± 0.13.
Consider “CGTATTTATATAATTACACACCATATTTTAATTATT [CACACA_site5960]”, for which the “gcPBM binding intensity (ln)” value is 9.965 ± 0.078.
As for “ATAAACAATTAACAAACATGCAAATTTTAAATGTGT [TGCATGCA_site919]”, the “gcPBM binding intensity (ln)” value is 9.74 ± 0.085.
Turning to “AATAGTATTCACAAAGTTTTATATAATAAATATAAA [GTGCAC_negctrl_site154]”, the “gcPBM binding intensity (ln)” value is 9.84 ± 0.2.
For “TAATTTTTTTTTCTTGTACACACTATTTTATAATTT [CACACA_site4078]”, the “gcPBM binding intensity (ln)” value came to 11.4 ± 0.67.
The value for “ATCTATGATATATACACACACATGTATAAATAAATA [CACACA_site7012]” was 9.945 ± 0.035; that for “TTTTTTTTTTTGATTTGTACACAAAAAAAATATATG [XGTACX_site4547]” was 11.3 ± 1; that for “CTTTCATATGTTTTAACACACACGCATATATTATAT [CACACA_site8615]” was 10.13 ± 0.064.
With “AGATATATGGACGACTCACACATTTAAATTCATTCA [CACACA_site6047]”, the “gcPBM binding intensity (ln)” value turned out to be 10.9 ± 0.55.
In the case of “TTTTTTTTTTTTTTTTGTACATATTTTTAAACTATA [XGTACX_site2897]”, the “gcPBM binding intensity (ln)” value came to 11 ± 1.1.
To “TTTTTTTTTTGATGTTGTACATATATATTATATATA [XGTACX_site6377]” belongs 11.3 ± 0.83.
The value for “TAAATACACCCTAGACGTACATAAAAATTTAGTATG [XGTACX_site2512]” was 11.6 ± 0.76; that for “ATTAATAATGAGTTATGTACATACATATTTTAAGAT [XGTACX_site7543]” was 11.1 ± 0.59; that for “AGAAATGAAATATACACACATACATATATACATATA [CACACA_site4033]” was 9.725 ± 0.078.
For “ACCCTCATATTATAGACACACACAAAAAAAATAAAA [CACACA_site7941]”, the “gcPBM binding intensity (ln)” value was found to be 10.2 ± 0.49.
Regarding “TTTTTTTTTTTAATTTGTACGAATCTTTTTATTTTA [XGTACX_site4516]”, the “gcPBM binding intensity (ln)” value was determined as 10.8 ± 0.42.
With “ATATTTATATATATGTGTACATATAGAAACATAAAA [XGTACX_site4355]”, the “gcPBM binding intensity (ln)” value is 11.3 ± 0.93.

For the origin of these results see the supplement of paper PMC11417369.
